Source: PubChem BioAssay AID493208 (National Center for Advancing Translational Sciences (NCATS), 2011)
In all, about 44,000 compounds went through this assay and about 340 (0.77%) were called active. Roughly 5% stayed inconclusive and do not appear here. Calls come from the whole dose curve; as a rule, active = well fitted inhibition curve with a large enough effect; inconclusive = small, poorly fitted or top-dose-only effect; inactive = flat fitted curve, though single readings scatter. The list shows a part of the results.

Experiment: Acumen qHTS Assay for Inhibitors of the mTORC1 Signaling Pathway in MEF (Tsc2-/-, p53-/-) Cells: Sytravon;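 note: plate controls were DMSO for no effect and rapamycin for full effect; nearly all actives have a fitted effect of over 50% in size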
Conditions: phospho-rpS6 immunofluorescence/PI, 24 h; series mostly up to 38.3 µM; activity change, negative = inhibition: at the top concentration
Outline: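 Read-out: phospho-S6 Alexa-488 intensity over PI intensity per well, scored as % active cells using thresholds from rapamycin (7.5 nM) and DMSO controls. Tsc2-/-, p53-/- MEFs exposed to compound for 24 h; PI cell count recorded as viability.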

Activity change, negative = inhibition, inactive:
O=C(COCc1cc(-c2ccc3c(c2)OCO3)on1)NCc1ccccc1Cl -10.3%
COc1ccccc1OCC(=O)NCc1nc(-c2ccc(Cl)cc2)no1 3.69%
CCOc1ccc(C(=O)Nc2ccc(S(=O)(=O)Nc3nc(C)cc(C)n3)cc2)cc1OC 2.46%
O=C(COc1ccccc1)Nc1ccccc1OCc1cc(=O)n2ccccc2n1 -2.81%
CC1=C(c2ccc(C)c(C)c2)S(=O)(=O)N(Cc2ccc(C(=O)NC(C)c3ccccc3)cc2)C1=O (configuration not stated) -9.73%
Cc1ccccc1Cc1c(C)nc2nc(SCC(=O)NCCc3ccc(Cl)cc3)nn2c1C -26.8%
O=C(CN1C(=O)CCc2cc(S(=O)(=O)N3CCOCC3)ccc21)Nc1cccc(C(F)(F)F)c1 7.81%
Cc1ccc2c(=O)cc(C(=O)Nc3sc4c(c3C(=O)NCc3ccccc3)CCCC4)oc2c1C 6.19%
CCCCCCOc1ccc(C2C(=O)N(C3CCCCC3)CC(=O)N2CCCC)cc1 (configuration not stated) 13.7%
CCOc1cccc(C(=O)Nc2cc(-c3ccc(C)cc3)no2)c1 -1.29%
CN(C)c1ccc(CNC(=O)CCS(=O)(=O)c2ccc3c(c2)oc(=O)n3C)cc1 -8.22%
O=C(Nc1sc2c(c1C(=O)N1CCCCC1)CCCC2)c1ccccc1Cl -2.25%
Cc1noc(Cn2c(=O)c3cc4c(cc3n(CC(=O)Nc3ccccc3Br)c2=O)OCO4)n1 -6.41%
COc1ccc(NC(=O)CNC(=O)Cn2c(C)cc3ccccc3c2=O)cc1OC -22.2%
CCCS(=O)(=O)N1CCCC(C(=O)NCCOC)C1 (configuration not stated) -6.72%
Cc1ccccc1CNC(=O)CN(c1cccc(C)c1C)S(C)(=O)=O -12.1%
CCCCN(CCCC)C1=C(C(=O)c2ccccc2)N(C)S(=O)(=O)c2ccccc21 2.48%
CCOc1ccc(NCc2cccn2-c2nnc(N3CCC(C(=O)NCCOC)CC3)s2)cc1 -6.09%
C=C(C)Cn1c(=O)c2c(nc3n2CCN3c2ccc(F)cc2)n(C)c1=O 10.1%
Cc1cc(=O)n2nc(N3CCC(C(=O)NCc4ccc(F)cc4)CC3)sc2n1 0.29%
CCOc1ccc(-c2nc(Cn3ccn4nc(-c5ccc(OCC)c(Cl)c5)cc4c3=O)c(C)o2)cc1 0.259%
COc1ccccc1/C=C/c1nc(C#N)c(NCCc2ccccc2)o1 -2.64%
Cc1ccccc1Nc1cc(C(=O)NCc2cccs2)c2ccccc2n1 -0.798%
COc1ccc(C)cc1N(C)C(=O)c1c2c(nc3ccccc13)C(=O)N(C1CCCCC1)C2 -0.537%
CCOc1ccc(N(CC)S(=O)(=O)N2CCCC(C(=O)Nc3cc(Cl)ccc3OC)C2)cc1 (configuration not stated) -3.08%
COc1ccc(Nc2ncc(C(=O)N3CCN(c4ccc(F)cc4)CC3)c3ccccc23)cc1 -20.5%
COc1ccc(-c2nc3scc(CCNS(=O)(=O)c4ccc(NC(C)=O)cc4)n3n2)cc1 0.232%
CCOC(=O)c1ccc(NC2SC(=O)N(Cc3cccc(C(=O)O)c3)C2=O)cc1 (configuration not stated) -1.39%
COc1cc2nc(SCC(=O)Nc3ccccc3F)n3nc(-c4ccccc4)nc3c2cc1OC -0.468%
CCOc1ccc(Cn2c(CNS(=O)(=O)c3cccc(Cl)c3)nc3cccnc32)cc1 -0.108%
CCc1ccc(NC(=O)CSc2nc3c(sc4ccccc43)c(=O)n2CCCOC(C)C)cc1 6.48%
COc1ccccc1C(=O)N1CCN(Cc2cc(=O)oc3cc(C)ccc23)CC1 2.2%
COc1ccc(-c2nc3ccc(NS(=O)(=O)c4ccc(Cl)cc4)cc3o2)cc1 0.771%
Cc1ccc(CNC(=O)c2ccc(CSCc3ccccc3C)o2)cc1 3.82%
COc1ccccc1NC(=O)CSC1=Nc2ccccc2C2=NC(CCC(=O)NCc3cccs3)C(=O)N12 (configuration not stated) 1.43%
COc1ccc(-n2cc(C(=O)NCc3ccccc3Cl)c3ccccc3c2=O)cc1 -2.07%
CCCCN(CC)C(=O)Cn1ncc2c3ccccc3n(CCC)c2c1=O -12.5%
Cn1c(=O)[nH]c2cc(-c3noc(-c4cccc(Cl)c4)n3)ccc21 -1.8%
CCOc1cccc(C(=O)N(Cc2ccc(CC)cc2)C2CCS(=O)(=O)C2)c1 (configuration not stated) -9.57%
CCCNC(=O)Cn1nc(-c2ccc(F)cc2)c2cnc3ccc(F)cc3c21 0.822%
CCC(C)NC(=O)c1cccc(NC(=O)c2nsc3ccccc23)c1 (configuration not stated) -15.2%
CC(=O)C1=C(c2ccc(Cl)cc2)N(C(C)=O)n2c(nnc2C2CCCCC2)S1 0.395%
Cc1ccc(Cl)cc1N(C)C(=O)c1cn(C2CCCCC2)c(=O)c2c1c1ccccc1n2C 1.16%
Cc1ccc(N(CC(=O)Nc2cccc(Cl)c2)S(=O)(=O)c2cccs2)cc1 -5.65%
CCN(Cc1ccccc1)S(=O)(=O)c1ccc2c(c1)CC(C)N2C(=O)C1CCC1 (configuration not stated) 0.658%
O=c1c2oc3ccccc3c2n(Cc2ccccc2F)c(=O)n1Cc1ccccc1 -0.847%
Cc1ccc2onc(CC(=O)Nc3ccc(C(C)C)cc3)c2c1 -0.388%
Cc1ccc2c(c1)N(CCC(=O)NCc1ccccc1Cl)C(=O)CO2 -1.33%
COc1cccc(CNC(=O)c2cc3c(=O)oc4ccc(C)cc4c3s2)c1 1.87%
COc1ccc(-c2nnc(SCc3cccc(Cl)c3)o2)cc1 5.98%
CC(=O)N1CCC(N(Cc2ccc(C)o2)C(=O)Nc2ccc(C)cc2)CC1 0.283%
Cn1c(=O)[nH]c(=O)c2c1nc(NCCc1ccccc1)n2Cc1ccc(F)cc1 -12.8%
COc1ccc(NC(=O)c2c(NC(=O)c3ccc(Br)cc3)sc3c2CCCC3)cc1 12.4%
Cc1cc(NC(=O)Nc2nnc(N(C)Cc3ccccc3)s2)ccc1Br -5.29%
Cn1cc(S(=O)(=O)N2CCOCC2)cc1C(=O)Nc1ccc(Cl)c(C(F)(F)F)c1 8.46%
CCOc1ccc2nc(NC(=O)c3nc(SC)ncc3Cl)sc2c1 -3.71%
CCOc1ccccc1NC(=O)Cc1noc2ccc(C)cc12 -4.42%
Cn1cnc2c(=O)oc3ccc(S(=O)(=O)Nc4ccc(F)cc4)cc3c21 -10.6%
CCOc1ccc(CNS(=O)(=O)c2ccc(-c3coc(C)n3)cc2)cc1 -7.88%
COc1ccc(N2CCN(CCCNC(=O)Cn3c(-c4cccs4)cc4ccccc43)CC2)cc1 0.0836%
CC1(C)C(=O)N(CC(=O)Nc2ccc(Br)cc2F)c2ccccc21 -2.32%
COc1cccc(C2C(C(=O)Nc3ccc(C)cc3C)=C(C)Nc3nc4ccccc4n32)c1OC (configuration not stated) -19.3%
COc1ccc2nc(N(Cc3cccnc3)C(=O)C3CCCCC3)sc2c1 -5.69%
Cc1nc2ccc(S(=O)(=O)N(C)CC(=O)Nc3cccc(C(F)(F)F)c3)cc2s1 -1.86%
CCOC(=O)c1cc(S(=O)(=O)N2CCN(c3ccccc3F)CC2)[nH]n1 -1.96%
CC(NC(=O)C1CCN(c2nc3ccccc3nc2C(F)(F)F)CC1)c1ccccc1 (configuration not stated) 5.4%
CCCCN(CC)CCCNC(=O)Nc1sc2nc3n(c(=O)c2c1C)CCC(C)CC3 (configuration not stated) -5.5%
CCCCNC(=O)c1cccc(-n2c(C)nc3cccnc32)c1 -0.198%
Fc1ccc2c(c1)-c1nc(-c3ccccc3)cc(-c3ccccc3)c1CO2 5.28%
CCOc1cc(C(=O)N2CCn3c4c(c5cc(C)ccc53)CCCC42)cc(OCC)c1OCC (configuration not stated) -0.586%
COc1ccc(N(C(=O)c2cccc(C)c2)S(=O)(=O)c2ccc(Cl)cc2)cc1 -0.0762%
CC(C)CCNC(=O)c1cnc2sc(N3CCCCC3)nn2c1=O 8.02%
Cc1c(NC(=O)Nc2ccccc2C(F)(F)F)sc2nc3n(c(=O)c12)CCC(C)CC3 (configuration not stated) -2.62%
COc1ccc(CCCc2nnc(SCC(=O)Nc3ccc(C)cc3)o2)cc1 -5.62%
Cc1cccn2c(=O)c(/C=C(\C#N)c3nc4ccccc4[nH]3)c(Oc3ccc(C(C)(C)C)cc3)nc12 -19%
CCOc1ccc(-c2ccc(NS(=O)(=O)c3ccc(C)cc3)cc2)nn1 1.42%
O=C(CCc1nc(-c2cccs2)no1)Nc1cccc([N+](=O)[O-])c1 0.269%
Cc1ccc(C)c(N2CCN(C(c3ccccc3)c3nnc(-c4ccccc4F)o3)CC2)c1 (configuration not stated) -27.7%
Cc1ccc(OCC(=O)OCc2cc(=O)n3nc(-c4cccs4)sc3n2)cc1C -6.53%
Cc1ccc(-c2nc3n(n2)C(=O)CC(c2ccc(Cl)cc2)S3)cc1 (configuration not stated) -0.848%
Cc1cc(C)c(NC(=O)Cn2c(=O)n(-c3ccc(CC(=O)NCC4CCCO4)cc3)c(=O)c3ccccc32)c(C)c1 (configuration not stated) 3.07%
Cc1ccc(C(=O)Nc2sc3c(c2C(=O)NCc2ccco2)CCC(C(C)(C)C)C3)cc1 (configuration not stated) -20.9%
O=C(NCc1ccc(F)cc1)c1cc2n(n1)CCCN(Cc1ccc(F)cc1)C2=O -10.4%
Cc1ccsc1CN(C(=O)COc1ccc(Br)cc1)C1CCS(=O)(=O)C1 (configuration not stated) 0.235%
Cc1ccc(OCC(=O)Nc2cc3nn(-c4ccccc4)nc3cc2C)cc1 2.78%
CCOc1ccc(Sc2cc(C(=O)NC(C)c3ccccc3)c3ccccc3n2)cc1 (configuration not stated) 6.57%
Cc1cc(Cl)ccc1NC(=O)C(=O)NCc1ccco1 18.4%
COc1ccc2c(CNCc3cccs3)c(C(=O)O)n(Cc3ccccc3)c2c1 -1.38%
Cc1c(CCNC(=O)c2ccc(Br)o2)sc2nc(-c3ccc(F)cc3)nn12 1.12%
COc1ccc(NC(=O)Cn2c(SCc3cc(C)ccc3C)nc3ccncc32)c(OC)c1OC -0.225%
CCOc1ccccc1NC(=O)Cn1cc(C(=O)c2cccc(OC)c2)c(=O)c2ccc(C)nc21 2.21%
O=C(Cn1c(=O)c2cccn2c2ccccc21)NCCc1ccccc1 7.91%
Cc1ccc2nc(NC(=O)COc3ccc(F)cc3)sc2c1 -0.0302%
CCOc1ccccc1C(=O)Nc1ccc(S(=O)(=O)Nc2nc(C)cc(C)n2)cc1 -2.8%
CCc1cccc(NC(=O)CSC2=Nc3ccccc3N=C(c3ccc(F)cc3)C2)c1 -17.8%
COc1cc(NC(=O)CN(c2ccc(C)cc2)S(=O)(=O)c2cccc3nonc23)cc(OC)c1 1.16%
CCN1CCN(c2nc3c(S(=O)(=O)c4ccc(Br)cc4)nnn3c3ccsc23)CC1 -3.71%
